{"source": "PubChem BioAssay (NCI)", "test_system": "NCI-H322M lung", "assay": "NCI-60 cell line screen, 48 h", "note": "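A five-concentration, 48-hour dose response in 96-well plates underlies each endpoint, interpolated linearly between surrounding concentrations. GI50 is the concentration that inhibits growth by half. Definition used: TGI = concentration required for complete inhibition of growth.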"}
{"smiles": "O=C(CS(=O)(=O)c1oc(-c2ccc(Cl)cc2)nc1S(=O)(=O)c1ccccc1)N1CCCC1", "values": [{"measurement": "GI50", "value": 13.9, "unit": "µM"}, {"measurement": "TGI", "value": 26.8, "unit": "µM"}]}
{"smiles": "C=C1CC[C@@H]2[C@]3(C)COC(c4ccccc4)O[C@@H]3CC[C@@]2(C)[C@@H]1C/C=C1/C(=O)OCC1OC(C)=O", "note": "(stereo partly specified)", "values": [{"measurement": "GI50", "value": 13.5, "unit": "µM"}, {"measurement": "TGI", "value": 26.4, "unit": "µM"}]}
{"smiles": "CN(C)C(=O)c1cc(-c2ccc3ncnc(N4CCc5cc(F)c(Cl)cc54)c3c2)cnc1N", "values": [{"measurement": "GI50", "value": 0.136, "unit": "µM"}, {"measurement": "TGI", "value": 1.22, "unit": "µM"}]}
